# Source: the supplement of paper PMC8728848
# Some of the results follow.
# Key:
# Assay in all cases: glycan array binding signal (z-score within array); higher = stronger binding
# Settings in all cases: glycan notation: IUPAC condensed, linker removed
# [1] = biological target: Neu5Ac(a2-3)Gal(b1-4)GlcNAc(b1-6)GalNAc
# Method in brief: (§1)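 Columns mapping to the same glycan were averaged after glycan names were converted to IUPAC-condensed notation. The data come from 3228 arrays in the Consortium for Functional Glycomics database, limited to those with an available protein sequence. Binding is reported as a within-array Z-score averaged across arrays of one protein sequence and across linkers.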
# [2] = biological target: Neu5Ac(a2-3)Gal(b1-4)GlcNAc(b1-6)[Gal(b1-3)]GalNAc
# Method in brief: as §1
# [3] = biological target: Neu5Ac(a2-3)Gal(b1-4)GlcNAc(b1-6)[Neu5Ac(a2-3)Gal(b1-3)]GalNAc
# Method in brief: as §1
# [4] = biological target: Neu5Ac(a2-3)Gal(b1-4)GlcNAc6S
# Method in brief: as §1
# [5] = biological target: Neu5Ac(a2-3)Gal(b1-4)[Fuc(a1-3)]GlcNAc
# Method in brief: as §1
# [6] = biological target: Neu5Ac(a2-3)Gal(b1-4)[Fuc(a1-3)]GlcNAc(b1-2)Man
# Method in brief: as §1
# [7] = biological target: Neu5Ac(a2-3)Gal(b1-4)[Fuc(a1-3)]GlcNAc(b1-3)Gal
# Method in brief: as §1
# [8] = biological target: Neu5Ac(a2-3)Gal(b1-4)[Fuc(a1-3)]GlcNAc(b1-3)Gal(b1-4)GlcNAc
# Method in brief: as §1
# [9] = biological target: Neu5Ac(a2-3)Gal(b1-4)[Fuc(a1-3)]GlcNAc(b1-3)Gal(b1-4)[Fuc(a1-3)]GlcNAc(b1-3)Gal(b1-4)[Fuc(a1-3)]GlcNAc
# Method in brief: as §1
# [10] = biological target: Neu5Ac(a2-3)Gal(b1-4)[Fuc(a1-3)]GlcNAc(b1-3)GalNAc
# Method in brief: as §1
# [11] = biological target: Neu5Ac(a2-3)Gal(b1-4)[Fuc(a1-3)]GlcNAc(b1-6)[Gal(b1-3)]GalNAc
# Method in brief: as §1
# [12] = biological target: Neu5Ac(a2-3)Gal(b1-4)[Fuc(a1-3)]GlcNAc(b1-6)[Neu5Ac(a2-3)Gal(b1-3)]GalNAc
# Method in brief: as §1
# [13] = biological target: Neu5Ac(a2-3)Gal(b1-4)[Fuc(a1-3)]GlcNAc6S
# Method in brief: as §1
# [14] = biological target: Neu5Ac(a2-3)Gal6S(b1-4)GlcNAc
# Method in brief: as §1
# [15] = biological target: Neu5Ac(a2-3)Gal6S(b1-4)[Fuc(a1-3)]GlcNAc
# Method in brief: as §1
# [16] = biological target: Neu5Ac(a2-3)GalNAc
# Method in brief: as §1
# [17] = biological target: Neu5Ac(a2-3)GalNAc(b1-4)GlcNAc
# Method in brief: as §1
# [18] = biological target: Neu5Ac(a2-3)[GalNAc(b1-4)]Gal(b1-4)Glc
# Method in brief: as §1
# [19] = biological target: Neu5Ac(a2-3)[GalNAc(b1-4)]Gal(b1-4)GlcNAc
# Method in brief: as §1
# [20] = biological target: Neu5Ac(a2-3)[GalNAc(b1-4)]Gal(b1-4)GlcNAc(b1-3)GalNAc
# Method in brief: as §1
# [21] = biological target: Neu5Ac(a2-3)[Neu5Ac(a2-6)]GalNAc
# Method in brief: as §1
# [22] = biological target: Neu5Ac(a2-6)Gal
# Method in brief: as §1
# [23] = biological target: Neu5Ac(a2-6)Gal(b1-3)GlcNAc(b1-3)[Gal(b1-4)GlcNAc(b1-6)]Gal(b1-4)Glc
# Method in brief: as §1
# [24] = biological target: Neu5Ac(a2-6)Gal(b1-4)Glc
# Method in brief: as §1
# [25] = biological target: Neu5Ac(a2-6)Gal(b1-4)GlcNAc
# Method in brief: as §1
# [26] = biological target: Neu5Ac(a2-6)Gal(b1-4)GlcNAc(b1-2)Man
# Method in brief: as §1
# [27] = biological target: Neu5Ac(a2-6)Gal(b1-4)GlcNAc(b1-2)Man(a1-3)Man(b1-4)GlcNAc(b1-4)GlcNAc
# Method in brief: as §1
# [28] = biological target: Neu5Ac(a2-6)Gal(b1-4)GlcNAc(b1-2)Man(a1-3)[Gal(b1-4)GlcNAc(b1-2)Man(a1-6)]Man(b1-4)GlcNAc(b1-4)GlcNAc
# Method in brief: as §1
# [29] = biological target: Neu5Ac(a2-6)Gal(b1-4)GlcNAc(b1-2)Man(a1-3)[GlcNAc(b1-4)][Neu5Ac(a2-6)Gal(b1-4)GlcNAc(b1-2)Man(a1-6)]Man(b1-4)GlcNAc(b1-4)GlcNAc
# Method in brief: as §1
# [30] = biological target: Neu5Ac(a2-6)Gal(b1-4)GlcNAc(b1-2)Man(a1-3)[Man(a1-6)]Man(b1-4)GlcNAc(b1-4)GlcNAc
# Method in brief: as §1
# [31] = biological target: Neu5Ac(a2-6)Gal(b1-4)GlcNAc(b1-2)Man(a1-3)[Neu5Ac(a2-3)Gal(b1-4)GlcNAc(b1-2)Man(a1-6)]Man(b1-4)GlcNAc(b1-4)GlcNAc
# Method in brief: as §1
# [32] = biological target: Neu5Ac(a2-6)Gal(b1-4)GlcNAc(b1-2)Man(a1-3)[Neu5Ac(a2-6)Gal(b1-4)GlcNAc(b1-2)Man(a1-6)]Man(b1-4)GlcNAc(b1-4)GlcNAc
# Method in brief: as §1
# [33] = biological target: Neu5Ac(a2-6)Gal(b1-4)GlcNAc(b1-2)Man(a1-3)[Neu5Ac(a2-6)Gal(b1-4)GlcNAc(b1-2)Man(a1-6)]Man(b1-4)GlcNAc(b1-4)[Fuc(a1-6)]GlcNAc
# Method in brief: as §1
# [34] = biological target: Neu5Ac(a2-6)Gal(b1-4)GlcNAc(b1-2)Man(a1-6)Man(b1-4)GlcNAc(b1-4)GlcNAc
# Method in brief: as §1
# [35] = biological target: Neu5Ac(a2-6)Gal(b1-4)GlcNAc(b1-2)Man(a1-6)[Gal(b1-4)GlcNAc(b1-2)Man(a1-3)]Man(b1-4)GlcNAc(b1-4)GlcNAc
# Method in brief: as §1
# [36] = biological target: Neu5Ac(a2-6)Gal(b1-4)GlcNAc(b1-2)Man(a1-6)[GlcNAc(b1-2)Man(a1-3)]Man(b1-4)GlcNAc(b1-4)GlcNAc
# Method in brief: as §1
# [37] = biological target: Neu5Ac(a2-6)Gal(b1-4)GlcNAc(b1-2)Man(a1-6)[Man(a1-3)]Man(b1-4)GlcNAc(b1-4)GlcNAc
# Method in brief: as §1
# [38] = biological target: Neu5Ac(a2-6)Gal(b1-4)GlcNAc(b1-2)[Neu5Ac(a2-6)Gal(b1-4)GlcNAc(b1-4)]Man(a1-3)[GlcNAc(b1-4)][Neu5Ac(a2-6)Gal(b1-4)GlcNAc(b1-2)[Neu5Ac(a2-6)Gal(b1-4)GlcNAc(b1-6)]Man(a1-6)]Man(b1-4)GlcNAc(b1-4)GlcNAc
# Method in brief: as §1
# [39] = biological target: Neu5Ac(a2-6)Gal(b1-4)GlcNAc(b1-2)[Neu5Ac(a2-6)Gal(b1-4)GlcNAc(b1-4)]Man(a1-3)[GlcNAc(b1-4)][Neu5Ac(a2-6)Gal(b1-4)GlcNAc(b1-4)Man(a1-6)]Man(b1-4)GlcNAc(b1-4)GlcNAc
# Method in brief: as §1
# [40] = biological target: Neu5Ac(a2-6)Gal(b1-4)GlcNAc(b1-2)[Neu5Ac(a2-6)Gal(b1-4)GlcNAc(b1-6)]Man(a1-6)[Neu5Ac(a2-6)Gal(b1-4)GlcNAc(b1-2)Man(a1-3)][GlcNAc(b1-4)]Man(b1-4)GlcNAc(b1-4)GlcNAc
# Method in brief: as §1
# [41] = biological target: Neu5Ac(a2-6)Gal(b1-4)GlcNAc(b1-3)Gal(b1-3)GlcNAc
# Method in brief: as §1
# [42] = biological target: Neu5Ac(a2-6)Gal(b1-4)GlcNAc(b1-3)Gal(b1-4)GlcNAc
# Method in brief: as §1
# [43] = biological target: Neu5Ac(a2-6)Gal(b1-4)GlcNAc(b1-3)Gal(b1-4)GlcNAc(b1-2)Man(a1-3)[Neu5Ac(a2-6)Gal(b1-4)GlcNAc(b1-3)Gal(b1-4)GlcNAc(b1-2)Man(a1-6)]GalNAc
# Method in brief: as §1
# [44] = biological target: Neu5Ac(a2-6)Gal(b1-4)GlcNAc(b1-3)Gal(b1-4)GlcNAc(b1-3)Gal(b1-4)GlcNAc
# Method in brief: as §1
# [45] = biological target: Neu5Ac(a2-6)Gal(b1-4)GlcNAc(b1-3)Gal(b1-4)GlcNAc(b1-3)Gal(b1-4)GlcNAc(b1-2)Man(a1-3)[Neu5Ac(a2-6)Gal(b1-4)GlcNAc(b1-3)Gal(b1-4)GlcNAc(b1-3)Gal(b1-4)GlcNAc(b1-2)Man(a1-6)]GalNAc
# Method in brief: as §1
binder,measurement,setting,value
RBMC1 (Vibrio cholerae) (protein) QQSQRVVTADNLMYLRSGFAIDAIGTTVNNLVGGPVQGTNGGVLRAPIALDQLQSVEVTSGLYNWGGYHIVAIKFTMKDGSSVLLGSTHYASNKKVETYTVPQGKRIKQINVWTGGWLVEGFQFVY,glycan array binding signal (z-score),[1],-0.114
same,glycan array binding signal (z-score),[2],0.096
same,glycan array binding signal (z-score),[3],-0.291
same,glycan array binding signal (z-score),[4],-0.263
same,glycan array binding signal (z-score),[5],-0.385
same,glycan array binding signal (z-score),[6],-0.392
same,glycan array binding signal (z-score),[7],-0.289
same,glycan array binding signal (z-score),[8],-0.242
same,glycan array binding signal (z-score),[9],-0.373
same,glycan array binding signal (z-score),[10],-0.194
same,glycan array binding signal (z-score),[11],-0.369
same,glycan array binding signal (z-score),[12],-0.122
same,glycan array binding signal (z-score),[13],-0.031
same,glycan array binding signal (z-score),[14],-0.371
same,glycan array binding signal (z-score),[15],-0.294
same,glycan array binding signal (z-score),[16],-0.161
same,glycan array binding signal (z-score),[17],-0.378
same,glycan array binding signal (z-score),[18],-0.432
same,glycan array binding signal (z-score),[19],-0.395
same,glycan array binding signal (z-score),[20],-0.099
same,glycan array binding signal (z-score),[21],-0.02
same,glycan array binding signal (z-score),[22],-0.359
same,glycan array binding signal (z-score),[23],-0.461
same,glycan array binding signal (z-score),[24],-0.22
same,glycan array binding signal (z-score),[25],-0.284
same,glycan array binding signal (z-score),[26],-0.206
same,glycan array binding signal (z-score),[27],-0.288
same,glycan array binding signal (z-score),[28],-0.28
same,glycan array binding signal (z-score),[29],-0.092
same,glycan array binding signal (z-score),[30],10.4
same,glycan array binding signal (z-score),[31],2.28
same,glycan array binding signal (z-score),[32],4.94
same,glycan array binding signal (z-score),[33],11.9
same,glycan array binding signal (z-score),[34],0.115
same,glycan array binding signal (z-score),[35],3.13
same,glycan array binding signal (z-score),[36],1.84
same,glycan array binding signal (z-score),[37],-0.031
same,glycan array binding signal (z-score),[38],-0.365
same,glycan array binding signal (z-score),[39],-0.287
same,glycan array binding signal (z-score),[40],-0.28
same,glycan array binding signal (z-score),[41],-0.121
same,glycan array binding signal (z-score),[42],-0.084
same,glycan array binding signal (z-score),[43],0.638
same,glycan array binding signal (z-score),[44],-0.349
same,glycan array binding signal (z-score),[45],1.12
